Measurements from the supplement of paper PMC3334620.
The full ranking holds about 33,000 sequences; the median of “E-score (-0.5 to 0.5)” is about -0.01, and the highest 2% start at about 0.26. This is one part of the list.

Each sequence was assayed against Ste12 (UniProt P13574) (assay: PBM E-score (8-mer binding enrichment) (E-score (-0.5 to 0.5)); higher = stronger / more preferred TF binding; most listed sequences are background and not binding sites). Conditions: protein concentration: 200 nM; construct: GST-DNA-binding domain.
Experimental: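 Universal 'all 10-mer' protein binding microarrays (Agilent AMADID 015681) probed with GST-tagged S. cerevisiae TFs (full-length or DBD) made by in vitro transcription/translation (PURExpress), about 100-200 nM. Bound TF was detected with fluorescent anti-GST. Each ungapped 8-mer (which stands for itself and its reverse complement) is scored by the PBM enrichment score (E-score), a modified Wilcoxon-Mann-Whitney statistic from -0.5 to +0.5, computed with the Universal PBM Analysis Suite. Scale: above 0.35 generally sequence-specific binding.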

Sequence | PBM E-score
AACTGCTA | 0.0158
GACAGTGA | 0.0565
TACACGCA | -0.16
TAAGCCAA | 0.00854
ACACAATA | 0.199
ATCTTGTA | -0.0683
TACGGACA | -0.0887
AGAATGTC | -0.186
ATGGAAGG | -0.0965
GATCCGTA | -0.105
CCTTGAGC | 0.0231
CACAACGG | -0.204
CATGGCCG | 0.121
CTTCGATC | -0.0994
TGCACACA | -0.157
ATGGTACC | -0.0804
AAACAGGC | -0.0502
GGAGAGAA | -0.0614
AAGAACAA | 0.23
ACTGTCAT | 0.0059
AGATTTAC | 0.114
GAACCTGC | -0.118
AAGCCGTC | -0.00203
ATGACTCA | -0.0126
CTTCGAAA | 0.132

Sequence | PBM E-score
AAGTGAGG | -0.111
GTTCAAAC | 0.221
ATGAAGAG | 0.112
AACAGTCA | -0.0148
ACAGTCAT | -0.144
ACCGCTCC | -0.0899
CGGTAACC | -0.0501
AGTGGCAC | -0.256
CCCTACCG | -0.148
CATACTGC | 0.0378
CAGGCGGG | 0.0689
TGGTAGAA | 0.0106
TAAAAGAA | 0.0708
ATCTACGC | 0.226
CAAGAATA | 0.149
CACAGCGG | -0.0416
AATAGGGA | 0.0663
GAACAATA | 0.226
GCTGGCAA | 0.146
ATTAGTGC | 0.0153
TCAGGCGA | 0.0318
CAGCACAG | -0.103
AGATCCGC | -0.11
ATGCCAAC | -0.0266
CAACGATA | 0.0594

Sequence | PBM E-score
AAATCTAG | -0.0397
GCGACTGA | -0.0821
GTGTTAGA | 0.0425
AGGAGTCG | -0.213
CTGGGCCA | -0.251
ATTATAAC | 0.172
ACTTGTTA | 0.16
ACCCGCAA | -0.203
CGAACCTA | -0.0226
CCTGGATC | -0.309
ATCTTCTC | 0.011
CTGCGCAG | -0.147
CTCACGCA | 0.125
CCATGCCC | -0.0778
CGTACAAA | -0.00753
AGACTAAA | 0.145
CACGCCAG | -0.163
ATCCGAGC | -0.0632
CCACGAAG | -0.0792
CTTTACCA | 0.0355
CCGTGCCG | -0.216
GTGAGATA | -0.0196
CCTGCCCG | -0.0386
AGAATGTG | -0.0534
CCGAGAGG | -0.101

Sequence | PBM E-score
GTTCGGGA | 0.0637
CAGCCTCG | 0.185
GAGCAAGA | -0.0519
GGTGTTTA | 0.182
CCGTCGCG | -0.144
AAATTTGT | 0.188
AGGAAGAT | 0.0601
GAGAAGAC | -0.146
ATTCCGTG | 0.0217
ACTATCTA | -0.0876
CAGAAGAG | 0.00034
GGGATATA | 0.0231
AGCCGGGC | -0.256
GAACAGAC | 0.0181
GTTGGGAA | -0.0234
ACATTCGA | 0.119
ATAATAAT | 0.126
AGCAGGAT | 0.0876
ACCCCCGC | -0.161
CGCTCAAC | -0.108
AAGTATCT | -0.0241
GCGCAGAA | 0.0586
GATGCTTA | -0.0965
AGTCAACC | 0.0595
GGCTGCAC | -0.238

Sequence | PBM E-score
GGCATTAA | 0.0709
AAACCTTG | 0.0436
TCCATCAA | 0.122
GGAGGTGA | 0.101
CGTAGGAG | -0.211
ACTGGTCC | -0.0777
CACGTCAG | -0.0714
ATAACTAA | 0.0714
ATGTTTAC | 0.234
GGTATAGA | 0.00136
AAAGTATT | 0.136
CGGTGTAA | 0.0759
CACGCGCC | 0.0271
GTGGGTAA | -0.118
ACTGAAGT | -0.12
GACAGGCA | 0.00399
ATTCGATC | 0.0704
AGCCCCGA | -0.0229
ATCATAAG | 0.0492
TAGGCCAA | -0.176
GAGCAGGC | -0.208
TACGCTGA | -0.101
GAGTCCCC | -0.265
ATCCAATC | 0.0994
ACTTAGAA | 0.0438

Sequence | PBM E-score
AGCACGGC | -0.0299
ACAGGAGT | -0.107
CAGCCTGA | 0.0275
CCCATAAA | -0.0663
ACTTTTAC | 0.263
ATGCAAAC | 0.149
ATTGACGA | 0.0585
GTCAGAGA | -0.188
TTATGGAA | 0.226
ACATGCAT | 0.0142
CCCACCGG | -0.155
GTGGATGA | -0.0758
GTGGGCTA | -0.163
AGAAGTCG | -0.0549
CATGTCTA | -0.0677
ATCCGGAG | 0.132
CGCCTGTA | -0.144
AATAAATG | 0.216
AAACAATG | 0.147
CGGCGAAA | 0.137
AATCTTAA | 0.0814
CGGGCTGA | -0.0192
AGACTTAA | -0.0839
AATGGTGA | 0.0094
GCCATAGA | -0.0934

Sequence | PBM E-score
AGAAATAA | 0.207
TCGGCCGA | 0.0948
TAGCTACA | -0.118
TAGCGAAA | 0.118
ACAGCTGT | -0.177
ATCAAAGC | 0.0652
ATGTGATG | -0.0518
CGCGGCGC | 0.125
ACATAGAT | -0.0265
CAAGAGAC | -0.112
ATCGCTGA | 0.0794
CCCCACAC | 0.0325
CCCCTTTC | -0.00455
TCACCGGA | -0.0172
GGAGAAAC | 0.137
ACCCATAC | 0.105
ACTGCCCT | -0.0493
AAAAAGGC | 0.107
AAAGTGCA | 0.00735
CTACCTCC | -0.09
AAGGAGGG | 0.0772
CAAACGGA | 0.0164
ACACTGCG | -0.00409
GAGACGCC | 0.111
GTAACTCA | -0.00566

Sequence | PBM E-score
AGACACGC | -0.163
AATGGTAT | 0.0905
AACTGAGT | -0.0272
CCTCCTCA | -0.0921
TCCAGACA | -0.06
GACTTGTA | -0.0715
AGCCCAGG | -0.201
GCAATCCA | -0.0316
GAAACTCA | 0.219
AAGAGCGA | 0.067
GTCATGAC | -0.136
ACCAAATG | 0.0275
ACCCTAGT | -0.0979
CGAAACAA | 0.349
ACCATATA | -0.034
GGGGTGCA | 0.0263
CGACTGCG | -0.0514
CGGATAAG | 0.0102
CGTGGCCC | -0.228
AATCTCGA | 0.011
TATCGGCA | -0.076
CCCCAATC | -0.0733
TTCAGCAA | 0.125
ACAACCGC | 0.0745
ACTCGGAA | 0.0844

Sequence | PBM E-score
GCAACAGC | -0.00451
CGGGAGTA | 0.0457
AATTTGAT | 0.0452
CGTCGCTC | -0.115
GGGCCCAC | -0.122
ACCGCTCA | -0.0178
ATTTCGAC | -0.0166
AAGCACGC | 0.12
GAAAGTTA | 0.159
CATGAGCG | -0.0776
GCCCTAGA | -0.18
GACCTATC | -0.0664
AATAAACT | 0.255
ACGTTGTC | -0.195
CGAGACAG | 0.0228
ATGAGTAG | -0.0227
TGCCCACA | -0.155
GCCCCGTA | -0.19
GGCCACTA | -0.218
CAACCCAA | -0.137
ACCAGGCT | -0.0491
GGTTGGAA | 0.222
TCCTACAA | 0.126
AGTCGCAG | -0.0962
CGTACAAC | -0.0913

Sequence | PBM E-score
ATGCACGC | -0.063
ATGCGGGC | 0.0501
CGGTGTTA | 0.0775
ACATCAGT | 0.0301
CAAGAAAC | 0.165
GTCCTGCA | -0.223
ACATTTCG | 0.034
ATGGTCCG | 0.0323
CCCCCCGA | -0.148
ACGTCAAT | -0.271
AAAATTTC | 0.0683
ATGCAGCA | -0.175
CAACGGTG | -0.0931
CACCGCGA | -0.0822
AAAACGCT | 0.0239
AGGAATTC | 0.0142
CAACTATA | 0.0452
ACCGTCCA | -0.0201
ACGGGGTG | 0.0476
TGAATTAA | 0.214
CCTTCACC | -0.0114
AGATTGGG | 0.0168
ACAAGCTA | -0.0518
CGACGGCC | -0.187
ACGAGCCG | 0.0111

Sequence | PBM E-score
CGATTTAC | 0.148
AATGTTTA | 0.174
ATTACCCA | 0.0293
TCTTATCA | 0.102
ACTAGGTC | -0.114
GATCGCCC | -0.0498
ATTCCATA | 0.0806
CCACCATC | -0.114
AAACTCAG | 0.0876
CGCCCGAA | 0.0436
GATGAAAA | 0.281
CTTCAACA | 0.0157
AAATGCTC | 0.127
CTTCTTAA | 0.0493
AGCAATTC | -0.0997
AGGGCGCG | -0.00647
CCTCAGTC | -0.199
AAAACACA | 0.198
AAAAAAAG | 0.294
TGGGCTAA | -0.0581
AACGGTCG | 0.0414
CCTCGGCG | 0.252
AGGAGCCC | -0.204
AAGTCGAC | 0.119
CTCTGATA | 0.028

Sequence | PBM E-score
CGCGCAGC | -0.115
CCTATTCG | -0.118
TAGCCCTA | -0.213
ACTCGGTA | -0.218
AAGATCAG | -0.0897
CTTTTCTC | 0.0641
ACTCTAGC | -0.282
CTGTGTCC | -0.0694
AACACGCT | 0.152
AATCATAC | 0.161
ACCGTCTA | -0.117
GAGCACGC | -0.137
AAAGTCGA | 0.0614
ATCCCCAA | 0.0874
CGACTATC | -0.197
ATAGAAAT | 0.207
GGCTCTCA | -0.339
CATACTTA | 0.0951
AGTGATTA | 0.1
AATCTGAC | 0.0332
CCCTCCGA | -0.0679
TAATGAGA | 0.168
CCTGGTCC | -0.205
CAAGTCTA | -0.00872
TAGGGCGA | -0.0892

Sequence | PBM E-score
GACGAGTA | 0.0549
AGAGTTAT | 0.0561
GACACAGC | -0.139
CCCCCGCC | -0.0801
CCAAGTAA | 0.161
GTGCCCAC | -0.173
CTTTTAGA | 0.0638
AACACCCC | 0.0348
CTTACGGC | -0.127
AAACCGGA | 0.22
CCGTCCTC | -0.157
AACCTTTA | -0.0276
GCTTTGCA | -0.264
CTGGCGCA | -0.0943
GGAACTAC | -0.105
CGGGAAGC | -0.0794
GAAAAACA | 0.21
CCCTGGCA | -0.13
TAGGAGGA | -0.0646
ACCTCAAA | 0.182
CACCCGCC | 0.258
ATAGTATG | -0.00467
ATAACCTC | -0.171
CAGTGTAG | 0.081
ACTTACGA | -0.0319

Sequence | PBM E-score
AGGGTGGA | -0.218
CAGCATGA | -0.0518
AAATATCT | 0.102
ACCGGGTA | 0.107
AAGACACA | -0.0313
GTCCCGAA | -0.125
CGTCCAAC | 0.11
CTAGGCTC | -0.319
ACCGCGTG | -0.261
GCTCACAA | -0.185
ATATATAT | 0.244
ATATCAAC | 0.141
AGAACGAG | -0.142
TCCAGGCA | 0.102
CGATGTCA | -0.119
AACGCTAG | -0.132
CCATCATC | 0.014
ACGTCTCT | 0.00481
AAAGATTC | 0.177
